Reference: article PMC12040169 (PLOS Biology, 2025)
The other results are listed elsewhere or left out.

The compounds below were run on T1, C. trachomatis L2/434/Bu expressing GFP (CTL2-GFP). Settings: total inclusion area; 28.5 h, 10 µM; inhibitor.
T1 construct: L2/434/Bu GFP intracellular growth in HeLa cells
Design: species or system HeLa; C. trachomatis total inclusion area by high-content imaging, normalised to DMSO
How it was run: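 Imaging read-out: GFP inclusions and Hoechst nuclei captured by high-content imaging after fixation. Inclusion area/number = chlamydial growth; nuclei count = host cell viability. MIC calculated per earlier method.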

SMILES	% of control remaining
Cc1cccc(CN(Cc2ccccc2)C(=O)CCc2ccncc2)n1 [CBK282101]	78.4604
CC(C)CC(NS(=O)(=O)c1cccc2nsnc12)C(=O)O (stereo not shown) [CBK217288]	96.6465
COc1ccc(CN2CC(C(=O)O)C2)cc1Cn1cncn1 [CBK307284]	40.4787
O=C(Nc1ccccc1)Nc1nc(=O)n(-c2ccccc2)s1 [CBK070710]	87.2133
Fc1ccc(-c2cc(CC3(NCc4ccc5c(c4)OCO5)COC3)no2)cc1 [CBK289654]	89.5784
CCn1nc(C)c(-c2cncn2CCCOc2ccccc2C)c1C [CBK281761]	98.388
CC1(C)CC(N(Cc2ccccc2)Cc2ncc[nH]2)CC(C)(C)N1 [CBK283179]	83.7649
COc1ccc(CN(Cc2ccsc2)[C@@H]2COC[C@H]2c2ccc(F)cc2)cc1 [CBK286485]	60.4032
CCN1CCN(C(=O)c2cc(C)[nH]n2)CC1 [CBK200377]	92.2187
CCNC(=O)N1CC2(CCN(CCOc3ccccc3)CC2)c2ccccc21 [CBK122701]	41.7049
O=C1CC(c2cccnc2)c2sc(N3CCOCC3)nc2N1 (stereo not shown) [CBK287927]	93.6847
Cc1ccc(S(=O)(=O)Nc2ccc3[nH]ccc3c2)cc1 [CBK153519]	65.3572
COc1cccc(CSC2=C(C#N)C(c3cccs3)C(C(=O)Nc3ccccc3)=C(C)N2)c1 (stereo not shown) [CBK267458]	100.538
COc1cc(S(=O)(=O)Oc2ccc(OCc3ccccc3)cc2)ccc1Cl [CBK264132]	92.8662
CC(=O)N1CCc2cc(NC(=O)c3cc4cc(C)ccc4o3)ccc21 [CBK281470]	103.147
CCC(CNC(=O)c1cc(-c2ccco2)nc2c(C(N)=O)ncn12)c1ccccc1 (stereo not shown) [CBK297779]	87.3844
O=S(=O)(c1ccccc1)N1CCC(c2cc3ncccc3[nH]2)CC1 [CBK283397]	79.5764
CNc1ncnc2c1ncn2C1CC(O)C(CO)O1 (stereo not shown) [CBK201308]	123.329
COc1cccc2ncn(CCc3n[nH]c(N)n3)c(=O)c12 [CBK307301]	67.2968
COCCSc1nnc(NS(=O)(=O)Cc2ccccc2)s1 [CBK267535]	92.8902
COc1ccc(C(N2CCOCC2)N2CCOCC2)cc1 [CBK261002]	96.3037
Cc1nc(C(Cc2ccsc2)NC(=O)c2cnn(C)c2)sc1C (stereo not shown) [CBK284779]	66.3616
COc1cc(OC)nc(CN2CCOC3(CCN(C(=O)OCc4ccccc4)CC3)C2)n1 [CBK161101T]	97.3707
CC(Oc1ccccc1)C(=O)Nc1c[nH]c(=O)[nH]c1=O (stereo not shown) [CBK266524]	67.9353
O=C(O)CC1(CC(=O)N2CC[C@H]3NC(=O)N(c4ccc(F)cc4)C(=O)[C@H]32)CCCC1 [CBK289327]	102.55
Cc1cc(C(=O)O)cc(S(=O)(=O)N2CCOCC2)c1C [CBK264497]	94.7999
O=S(=O)(Nc1ccccn1)N1CCOCC1 [CBK269391]	103.857

SMILES	% of control remaining
O=C(CN1CCCCCC1)Nc1sc2c(c1C(=O)Nc1ccc(Br)cc1)CCC2 [CBK265076]	96.8613
CCN(CCO)c1ccc(Nc2cc(-c3cccc([N+](=O)[O-])c3)ncn2)cc1 [CBK091002]	94.3605
CC(C)(C)NC(=O)[C@@H]1CNC[C@]12Cc1ccccc1C(=O)N2 [CBK285294]	81.3301
O=S(=O)(Nc1cccc(-c2cnco2)c1)c1ccc(-c2cc(C(F)(F)F)on2)s1 [CBK067124]	83.55
Cc1nc2sccn2c1CN1CCC(O)(c2ccc(F)cc2)CC1 [CBK282792]	60.9935
COCCCNC(=O)CN1CCCCC1Cn1nc(C)cc1C (stereo not shown) [CBK304009]	59.893
Cc1nc(SCC(=O)c2cc(Cl)ccc2Cl)c2ccccc2n1 [CBK297543]	94.0518
O=C(Nc1cccc(S(=O)(=O)N2CCOCC2)c1)c1cc(-c2cccnc2)nc2ccc(Cl)cc12 [CBK267720]	100.539
COc1ccc(CN(C)c2c(C)nc3c(OCCc4cccc(OC)c4)cccn23)cc1 [CBK147467]	113.342
CCN1CC(C(=O)N2CCN(C(=O)c3ccccc3F)CC2)CC1=O (stereo not shown) [CBK282937]	93.9584
COc1ccc(S(=O)(=O)NC(C)C(=O)NCc2ccccn2)cc1Cl (stereo not shown) [CBK269275]	95.1696
CN(CC(=O)O)C(=O)c1ccc(S(=O)(=O)N2CCCC2)cc1 [CBK265724]	91.1301
O=C(O)CCC(=O)N1C[C@@H]2C[C@H](C1)c1ccc(-c3ccc4ccccc4c3)c(=O)n1C2 [CBK289179]	96.9068
C[C@@H](Nc1nc(-c2cc(C(F)(F)F)cc(C(F)(F)F)c2)cnc1N)c1ccccc1 [CBK063720]	41.6135
Cc1nn(C)c(Cl)c1S(=O)(=O)NCCc1c[nH]c2ccccc12 [CBK067310]	82.554
COc1ccccc1Oc1ccc([N+](=O)[O-])cc1F [CBK002850]	82.5859
COCCc1nc(C2CCC2)n(Cc2ccccc2C)n1 [CBK307238]	103.239
CCc1nn(CC(=O)N2CCCCC2C)c(=O)c2cc3occc3n12 (stereo not shown) [CBK283676]	118.024
COc1ccc(CCC(=O)NC[C@H]2CC[C@H](c3cc(C(N)=O)c4ccccc4n3)CC2)cc1 [CBK285920]	126.136
CCc1ccc2c(c1)C(=O)CC1(CCN(C(=O)c3cc(OC)c(C)c(OC)c3)CC1)O2 [CBK168098]	83.6678
CC1(C)SC(c2ccc(F)cc2)N[C@H]1C(=O)O (stereo partly shown) [CBK025917]	105.961
CC(=O)c1cc2c(N)c(/C(N)=N/C#N)sc2nc1C [CBK021202]	70.541
O=C(O)c1cccc(-c2ccc(/C=N/Nc3ccc([N+](=O)[O-])cn3)o2)c1 [CBK263196]	58.9753
COc1ccc(NC(=O)C(=O)N/N=C/c2ccc(C(=O)O)cc2)cc1 [CBK262255]	102.083
COc1ccccc1NS(=O)(=O)c1ccc2c(c1)C1C=CCC1C(c1ccc(C(=O)O)cc1)N2 (stereo not shown) [CBK268903]	54.9822
NC(=O)c1cccc(-c2nc(-c3cc4ccccc4o3)cnc2N)c1 [CBK063996]	100.406
COC(=O)Nc1cc2sccc2nc1C(F)(F)F [CBK019229]	102.109

SMILES	% of control remaining
NC(=O)c1cccnc1N1CCNCC1 [CBK025310C]	74.8591
CCOC(=O)c1cnc(SC)nc1NCCc1c[nH]c2cc(F)ccc12 [CBK092315]	79.0368
O=Cc1ccc(-c2nccnc2NS(=O)(=O)c2ccccc2)cc1 [CBK073845]	99.0166
Cc1ccc(O)c(CN[C@@H]2CCC(=O)N[C@H]2c2cc(F)cc(F)c2)c1 [CBK283132]	89.6953
CC(c1ccccc1)n1c(S)nnc1-c1cc(C(C)(C)C)n[nH]1 (stereo not shown) [CBK268954]	92.5584
OC1(c2ccc(F)cc2)CCC2CN(CC3CC3)CC21 (stereo not shown) [CBK283105]	82.8723
Cc1ccc(C(=O)N2CCN(Cc3cc(=O)n4ccsc4n3)CC2)cn1 [CBK305700]	89.5547
Cc1ccc(F)c(OC2(C(=O)O)CCN(Cc3ncc[nH]3)CC2)c1 [CBK307062]	82.1093
C=CCNC(=O)N[C@H]1CCN2C(=O)c3ccc(Cl)cc3NC(=O)[C@@H]2C1 [CBK289569]	88.3897
CN(C(=O)COC(=O)c1cc(-c2ccco2)nc2ccccc12)C1(C#N)CCCCC1 [CBK295591]	114.712
CCN1C(=O)C2(CC(=O)N(CC(=O)OC)C2=O)c2cc(Cl)ccc21 (stereo not shown) [CBK075234]	156.534
COc1ccc([C@]23CN(C)C[C@H]2CCN(C(=O)c2cccc(Br)c2)C3)cc1OC [CBK075111T]	81.9985
COC(=O)CN1CCCC[C@H]2CN(C(=O)Cc3ccsc3)C[C@H]21 [CBK285509]	94.4568
CC(C)(N)CNC(=O)c1cnc2cc(Cl)ccc2c1O [CBK107360]	97.5706
Cc1nc(CN2CCCC3(CCN(C(=O)c4cc(F)c(F)cc4F)C3)C2)cs1 (stereo not shown) [CBK132026]	102.857
S=c1nccc(N2CCC(Cc3ccccc3)CC2)[nH]1 [CBK288361]	61.2314
O=C1CC2(CCN(C(=O)C3CCCC3)CC2)Oc2ccc(F)cc21 [CBK283686]	98.8712
CCC1CCCCN1C(=O)c1cc(C)nc(Cl)c1 (stereo not shown) [CBK076748]	64.1875
Cc1cc(C)n(CCCNC(=O)c2ncoc2-c2ccc(F)cc2)n1 [CBK282357]	19.9382
Cc1cc(OCc2nnc(SCC(=O)Nc3ccc(I)cc3)n2C)ccc1Cl [CBK268600]	96.0022
CC(=O)N1CCN(c2ccc(OCCO)cc2)CC1 [CBK001978]	95.6984
Nc1nnc(SCC(=O)NC23CC4CC(CC(C4)C2)C3)s1 [CBK267417]	115.788
O=C(Cc1ccccn1)N1CCC(c2cccc(Cc3ccc(C(F)(F)F)cc3)n2)CC1 [CBK286224]	77.3273
CCCNC(=O)CN1C(=O)N2CCCN=C2c2ccc(Cl)cc21 [CBK284389]	95.8872
Cc1ccc(C(=O)NC2CCN(C(=O)Nc3cc(Cl)ccc3F)CC2)s1 [CBK305243]	80.1903
